Measured values from PMC6919601, “Identification of Plasmodium dipeptidyl aminopeptidase allosteric inhibitors by high throughput screening” (PLoS ONE, 2019).
Hit rate of the full screen: of about 110,000 compounds, about 230 (0.21%) showed an effect of 50% or more. Some of the results follow.
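Further: 30 min substrate incubation versus DMSO and 10 µM JCP410 controls.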

Each compound was assayed against DPAP1 (Plasmodium falciparum, UniProt Q8IIJ9) (assay: primary screen, percent inhibition; read by cleavage of a fluorogenic dipeptide substrate; higher = more effect of the substance).
Sequence of DPAP1 (Q8IIJ9 whole entry, looked up): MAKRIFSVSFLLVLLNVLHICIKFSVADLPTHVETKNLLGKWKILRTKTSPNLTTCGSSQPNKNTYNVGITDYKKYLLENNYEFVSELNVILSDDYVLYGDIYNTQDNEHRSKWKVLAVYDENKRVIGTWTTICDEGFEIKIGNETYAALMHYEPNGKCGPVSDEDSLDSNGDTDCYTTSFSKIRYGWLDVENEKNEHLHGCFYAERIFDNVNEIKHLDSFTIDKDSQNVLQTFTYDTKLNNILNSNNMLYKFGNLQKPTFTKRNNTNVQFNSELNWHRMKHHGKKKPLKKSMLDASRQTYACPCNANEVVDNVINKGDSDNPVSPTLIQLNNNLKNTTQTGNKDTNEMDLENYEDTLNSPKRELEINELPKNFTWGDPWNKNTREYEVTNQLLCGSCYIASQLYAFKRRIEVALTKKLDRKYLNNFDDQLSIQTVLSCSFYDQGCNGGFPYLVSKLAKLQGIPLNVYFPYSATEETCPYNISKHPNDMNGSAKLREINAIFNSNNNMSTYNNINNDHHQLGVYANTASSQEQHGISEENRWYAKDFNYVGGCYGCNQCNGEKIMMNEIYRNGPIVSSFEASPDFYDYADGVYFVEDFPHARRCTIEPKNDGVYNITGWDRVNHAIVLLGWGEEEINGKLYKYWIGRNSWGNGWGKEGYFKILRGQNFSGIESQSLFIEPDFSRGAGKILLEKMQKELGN
Parameters: species or system P. falciparum D10 trophozoite lysates; single well
With `CSc1ccccc1NC(=O)C(C)NS(=O)(=O)c1ccc(Cl)cc1` (stereo not shown) the “% Inhibition @ 10 uM” value was 2.01%.
In the case of `Cc1cccc(C)c1NC(=O)CSc1ncnc2[nH]cnc12`, the “% Inhibition @ 10 uM” value is reported as 0.907%.
For `CC(C)c1nc(NCCCO)c(C#N)c2c1CCCC2`, the “% Inhibition @ 10 uM” value was -4.28%.
`Cc1cc(C)nc(SCC(=O)Nc2ccc(Cl)cc2)n1` was tested, and the “% Inhibition @ 10 uM” value was 0.661%.
`CCOC(C(=O)OCCCN(CC)CC)(c1ccccc1)c1ccccc1` was tested, and the “% Inhibition @ 10 uM” value was 1.27%.
In the case of `CCOC(=O)C1=C(CC)OC(N)=C(C#N)C1c1cc(Br)ccc1OC` (stereo not shown), the “% Inhibition @ 10 uM” value is reported as 4.57%.
In the case of `Cc1cc(C)n(C(=O)COc2ccccc2C)n1`, the “% Inhibition @ 10 uM” value is reported as -5.28%.
With `Cn1c(=O)c2ncn(CC(=O)Nc3ccc(C(=O)NC4CCCCC4)cc3)c2n(C)c1=O` the “% Inhibition @ 10 uM” value was -4.56%.
For `O=C(Nc1ccc(Cl)cc1)N1CCCc2ccccc21`, the “% Inhibition @ 10 uM” value was -4.86%.
For `Cc1ccsc1/C=C1/SC(=O)N(CC(=O)Nc2cccc3ccccc23)C1=O`, the “% Inhibition @ 10 uM” value was -14.4%.
With `Cc1ccc(-c2[nH]nc3c2C(c2ccsc2)C(C#N)=C(N)O3)cc1` (stereo not shown) the “% Inhibition @ 10 uM” value was 2.32%.
In the case of `CCCCOC(C(=O)OC(C)CN(C)C)(c1ccccc1)c1ccccc1` (stereo not shown), the “% Inhibition @ 10 uM” value is reported as -11.4%.
With `CCCc1nc2ccccc2n1CC(O)COc1ccc(C(C)=O)cc1` (stereo not shown) the “% Inhibition @ 10 uM” value was -8.7%.
In the case of `O=C1NC(=O)N(c2cccc3ccccc23)C(=O)/C1=C\c1ccc(O)cc1`, the “% Inhibition @ 10 uM” value is reported as -2.42%.
In the case of `COc1ccc(C(=N)NOC(=O)N2CCOCC2)cc1OC`, the “% Inhibition @ 10 uM” value is reported as 1.96%.
For `COc1ccc(C(=O)Nc2noc3ccccc23)c(OC)c1`, the “% Inhibition @ 10 uM” value was -2.85%.
With `CCC(NC(=O)NCc1ccc(Cl)cc1)(C(F)(F)F)C(F)(F)F` the “% Inhibition @ 10 uM” value was 0.475%.
For `CC(=O)Nc1ccc(S(=O)(=O)NC(C)C)cc1`, the “% Inhibition @ 10 uM” value was -4.35%.
With `CSC1=C(C#N)C(c2ccc(C)o2)CC(=O)N1` (stereo not shown) the “% Inhibition @ 10 uM” value was 1.54%.
`COc1ccc(C2CC(c3ccc(C)cc3)=NN2C(C)=O)cc1OC` (stereo not shown) was tested, and the “% Inhibition @ 10 uM” value was -0.496%.
`O=C(O)CCCC(=O)c1c[nH]c2ccccc12` was tested, and the “% Inhibition @ 10 uM” value was 5.3%.
With `O=C(CN1C(=O)c2ccccc2S1(=O)=O)Nc1ccc(Cl)cc1` the “% Inhibition @ 10 uM” value was 4.83%.
For `CC1CCC(N2CCN(c3ccccc3F)CC2)C1` (stereo not shown), the “% Inhibition @ 10 uM” value was -1.21%.
With `O=C(O)c1ccc(Oc2ccc3c(c2)C(=O)N(c2ccc(C(=O)O)cc2)C3=O)cc1` the “% Inhibition @ 10 uM” value was 3.53%.
For `Cc1cccc(C)c1-n1nnnc1C1(Nc2cccc(O)c2)CCCC1`, the “% Inhibition @ 10 uM” value was -0.216%.
In the case of `C=CCNC(=O)CN(c1cc(C)ccc1OC)S(=O)(=O)c1ccc(C)cc1`, the “% Inhibition @ 10 uM” value is reported as 1.89%.
With `Cc1nc2ccccc2n1CCCCOc1ccc(Cl)cc1` the “% Inhibition @ 10 uM” value was -0.551%.
With `COc1cccc(C2C(C#N)=C(N)OC3=C2C(=O)CC(c2ccco2)C3)c1OCc1ccc(F)cc1` (stereo not shown) the “% Inhibition @ 10 uM” value was -1.06%.
